Results as given in PubChem BioAssay AID686979 (National Center for Advancing Translational Sciences (NCATS), 2013).
Hit rate of the full screen: of about 420,000 compounds, about 50,000 (12%) were called active. Inconclusive means that the source gave no clear call. Such entries were picked first, then a sample of the others. Calls follow the shape of the dose curve; as a rule, active = well fitted inhibition curve with a large enough effect; inconclusive = small, poorly fitted or top-dose-only effect; inactive = flat fitted curve, though single readings scatter. Potencies of inconclusive entries are left out as doubtful fits.

Assay: qHTS for Inhibitors of human tyrosyl-DNA phosphodiesterase 1 (TDP1): qHTS in cells in presence of CPT; also: nearly all actives have a fitted effect of over 55% in size
Conditions: chicken DT40 Tdp1-/-;hTDP1 cells + 20 nM CPT, ATP luminescence, 48 h; series mostly up to 46.2 µM
Method in brief: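 Chicken DT40 Tdp1-/- cells complemented with human TDP1, 400 cells/well, exposed to compounds plus 20 nM camptothecin for at least 48 h at 37 C; viability read as ATP content by CellTiter-Glo luminescence.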
Potency is read from the fitted curve at half-maximal effect; tags tell the direction and shape of the fitted curve.

Compound | Potency
Cc1ccc(C(=O)Nc2ccc(C(=O)N/N=C/c3ccc(C)o3)cc2)cc1 | inconclusive [inhibitor, single point]
Cc1cc(OCC[N+]2(C)CCCCC2)nc2ccccc12 | inconclusive [inhibitor, partial curve]
COC(=O)C1(CC2CC(c3ccccc3)=NO2)CCN(C(=O)OC(C)(C)C)CC1 (stereo not given) | inconclusive [inhibitor, single point]
Cc1ccc(-c2nnc(-c3ccccc3)c(N3CCOCC3)n2)cc1 | inconclusive [inhibitor, single point]
CSc1ccc(/C=N/NC(=O)c2cccc(Cl)c2)cc1 | inactive
COc1cccc(NC(=O)c2oc3ccccc3c2NC(C)=O)c1 | inactive
CN(CCNC(=O)c1ccc(/C=N/O)nc1)Cc1ccccc1 | inactive
Cc1ccc(C)c(-c2csc(-c3cccnc3)n2)c1 | inconclusive [inhibitor, single point]
CCN(CC(O)c1cccc(O)c1)C(=O)C12CC3CC(CC(C3)C1)C2 (stereo not given) | inconclusive [inhibitor, single point]
COc1ccc(NC(=O)c2sc(=O)n(Cc3cccc(C(F)(F)F)c3)c2C)cc1OC | inconclusive [inhibitor, single point]
CC(C)[C@H]1COCCS(=O)(=O)N1Cc1ccccc1-c1ccccc1 | inconclusive [inhibitor, single point]
COc1cccc(CNC(=O)CN2C(=O)NC(c3ccccc3)(c3ccccc3)C2=O)c1 | inconclusive [inhibitor, single point]
COc1ccc(-n2c(C)cc(C(=O)COC(=O)c3cc(OC)c(OC)cc3NC(=O)c3cccs3)c2C)cc1 | inconclusive [inhibitor, single point]
NC(=O)COc1ccc(S(=O)(=O)N2CCCC2)cc1 | inactive
O=C(NC(c1cccnc1)c1ccc2c(c1)OCO2)C1CCN(CCOc2ccc(Cl)cc2Cl)CC1 (stereo not given) | inactive
COc1ccc(-c2nc3ccccc3[nH]2)cc1 | active: 10.3 µM
CC(C)CC(CO)N1CCN(C(=O)c2ccc(C(C)(C)C)cc2)CCC1=O (stereo not given) | inconclusive [inhibitor, single point]
Cc1ccc(C)c(N(C)C(=O)CCNC(=O)Cn2cnc3ccccc3c2=O)c1 | inconclusive [inhibitor, single point]
O=c1[nH]/c(=C/c2ccc3c(c2)OCO3)c(=O)[nH]/c1=C/c1ccc2c(c1)OCO2 | inactive
CCN(CC)S(=O)(=O)c1ccc(NC(=O)C2CCCN(C(=O)c3ccc(Cl)cc3)C2)cc1 (stereo not given) | active: 16.4 µM
